The RNAGym collection of RNA variant scans (doi:10.7554/elife.90254)
The source gives no read counts; variants with many changes may rest on few reads.

B1: OR4K15 (parent)
chain: GUUAACGGUCAUAGGCCAUGGAAACUAGGAGCACCAUUUCGCUGCCAGUGAAGAAAUGAACAAAGAAAAUCUGGGCCAGGCAGGCAUCAAAAGAAAUAGUCUUGCGCUCAACCAGAAAGUCUGUAAUCAUUUUAAGGGUA

Variants of: B1
Test: self-cleavage, relative activity (ratio to wild type); higher = more cleavage; in vitro, sequencing; the parent is a self-cleaving ribozyme

| Variant | self-cleavage |
| --- | --- |
| U2C U100C U102C U127C | 0.49 |
| U3C A68U U132C | 0.95 |
| U2G U19C G21A A33G A140G | 0.74 |
| U3C C71A G93A A110U U139C A140G | 0.77 |
| U3C A36G U49C | 1.3 |
| U3C U9C U19C G44C A82G U100C | 0.88 |
| U3A A13U A24C A111U U127C | 0.08 |
| U2C U72C C85U | 0.23 |
| U3C A60G A64G | 1.59 |
| U2C U49C A52U A140G | 0.86 |
| U3C A11C U19C A22G A24G A78U U120C | 0 |
| U2C U39C A95G U131C U133C | 2.02 |
| U3C U9C A55G | 1.31 |
| U3C A24G U43C | 0.37 |
| U2G U9A A62C A110G | 0.37 |
| U3C A22G A66G U108C U120C | 0 |
| U3C A11G A89G | 1.54 |
| U2G A47G A114U A117G | 0 |
| U3C U26C A63G | 1.3 |
| U3C A66G U108C | 0.03 |
| U2G U12C A68G U72A | 0.26 |
| U3A A24G A82G | 0.68 |
| U3A U9C A55G | 1.33 |
| U2C U87A A134G | 0.45 |

| Variant | self-cleavage |
| --- | --- |
| U3C U37C U38A U87A A89G A110G | 0.08 |
| U2C U108A A117G | 0 |
| U3C U39C G50A U57C A91G A110G | 0.09 |
| U3C A30G A54G A56G | 1.23 |
| U3A A91U U122C | 1.13 |
| U3A A94G U122G | 2.71 |
| U3C A66G A95G A134G | 2.03 |
| U2G A23G A52G G83A U120C | 0.24 |
| U3C A52G A63G A78G U120A | 0.18 |
| U3C U26C A60G U108A | 0.08 |
| U2C U108C A125G | 0.01 |
| U3C G28U U39A A59G G79A | 0.15 |
| U3C A33G A118G | 0.64 |
| U3C A5G A18G A23G C46U C107G | 0.08 |
| U3C A54G A60G A114G | 0.35 |
| U2G A64U A82G C105G | 0.19 |
| U3C A51G A54G A55U A64U | 1.61 |
| U2C U72G A89G A126G U131A | 0.12 |
| U2C U43C A59G A64G U70C U131C | 0.25 |
| U3A C77A A89G U130C | 0.78 |
| U2C U72C U108C | 0.02 |
| U3C A11G A24G A54G U70C | 0.98 |
| U2C U87C A90G | 0.24 |
| U3C A59G A114U | 0.06 |

| Variant | self-cleavage |
| --- | --- |
| U2C U124C U132C | 0.82 |
| U2G U39C A54U U127C | 1.05 |
| U2C U70C G99U U132A | 0.24 |
| U2C U43C U108C A116G | 0 |
| U2C U57C A117G A135G | 1.52 |
| U3C A23U U43C A52G A69G A94G | 0.61 |
| U2G A64G A134G | 0.89 |
| U3C A27U C40U U100A U102C | 0.7 |
| U3A A67G U103C | 0.69 |
| U3A G58A A96G U120C | 0.44 |
| U2G A30U U37C A114G A116U | 0.08 |
| U3C A94G A95G U122C A125U | 0.82 |
| U3C A62G A96G | 0.92 |
| U2C U97C U132C | 0.52 |
| U2G A63U A78U | 0.7 |
| U2C U39C A91G A126G | 0.62 |
| U3C G20U A30U U39C A96U A118G U139C | 1.56 |
| U3A A68G U122C | 1.28 |
| U3C C34U U39C | 1.53 |
| U2G A54G U100C U102A A117G | 1.75 |
| U2C U57G A94G C128A | 0.46 |
| U3C C85G A94G U131G | 0.18 |
| U2G A52G A56G C101G | 0.18 |
| U3C A22G A91G A114G | 0.14 |

| Variant | self-cleavage |
| --- | --- |
| U3C A51U A55G U72A A78G | 0.06 |
| U3C A24G A52G G73A G83U U87A A94U U132A | 0.1 |
| U2C U43A A52G U72C U102C | 0.47 |
| U2C U57C U100C | 1.61 |
| U3C A11G G84A | 1.39 |
| U3C U70G A92G A116G | 0.55 |
| U2C U72A A94G | 0.21 |
| U3C A33G A91G | 0.6 |
| U3C A67G U133C | 0.87 |
| U3C U9C A60G | 1.2 |
| U3C A33G A60G | 1.02 |
| U2C U49C U108G | 0.05 |
| U3C U57C U122A | 1.09 |
| U3C A24U A27U A91G | 1.9 |
| U3C U70C A95G U102G A116C | 0.19 |
| U3A U38C A86G | 0.96 |
| U3C A52G A86U A96G | 0.89 |
| U3C A30G A67G U122C | 1.05 |
| U2G A60U A78U U87C | 0.49 |
| U3C A4G A89G U97A | 0.6 |
| U3C A51U U70C C81U | 0.33 |
| U3C A62G U127C | 1.39 |
| U3A U12C A36G A98U | 1.22 |
| U3C A51U U72C U130C | 0.06 |

| Variant | self-cleavage |
| --- | --- |
| U3C U37C U38C A96G | 0.96 |
| U3C A54G A66G | 1.16 |
| U3A A27G A90G | 1.13 |
| U3C A55G A67G A94G A111G A114C U127A | 0.01 |
| U3C A22G A135G | 0.39 |
| U3C A11G A82G | 0.76 |
| U2G U19C A95G C121U | 2.09 |
| U3C U72C A78G | 0.11 |
| U2C U87C U122C | 0.7 |
| U3A C77A U132C | 0.47 |
| U2C U43C A91G A94G | 0.86 |
| U3A U9C A13G A51U | 1.05 |
| U3A A54U A60G A98G U122C | 0.15 |
| U3C A55G A64G A78U A95G C121U A125U U131C | 0.63 |
| U3C U9G A18U A23G | 1.08 |
| U3C A60U U87C | 1.44 |
| U2C U108C A114C U131C | 0.01 |
| U3A U103C A135U | 1.06 |
| U2C U100C U103A | 1.02 |
| U3C A24G A56G A92G | 1.49 |
| U3C A60G A110G A114G C128A G138A A140G | 0.01 |
| U2G U9C A11G A66G A98G A110U A126G | 0.53 |
| U3C U87C A91G U103C | 0.3 |
| U2C U139C A140C | 0.65 |

| Variant | self-cleavage |
| --- | --- |
| U3C U49C A51G A78U U87A | 0.34 |
| U3C A23G U43C | 0.99 |
| U3C A59U A98U U122C | 1.25 |
| U2G U43C A62G A86G U127C A129G | 0.15 |
| U3A U12C A92G | 1.71 |
| U2C U49C A66G | 0.06 |
| U3C A51U A92G U102C C105A | 0.05 |
| U3C A60G A78G U97A | 0.25 |
| U3C C121U A140G | 2.67 |
| U3A U39C A96G U103C | 1.56 |
| U3A G21A U72C A78U A126G | 0.19 |
| U3C C40U A63G A89G | 1.29 |
| U2C U39C A90G | 0.25 |
| U2C U49C U133C | 1.02 |
| U3C U9C U37C A67G | 1.01 |
| U3C A18G A94G | 1.28 |
| U2C U57C U102C U103C | 0.16 |
| U3C A24G A54U G73U | 0.18 |
| U2C U57C U72C | 0.22 |
| U3A G7C A98G | 0.64 |
| U3C A68G A86G | 1.62 |
| U3C A64G A66G A96G U122C U132C | 0.63 |
| U3C A56G G80A U122C | 0.07 |
| U3C A68G A86G A96G | 0.92 |

| Variant | self-cleavage |
| --- | --- |
| U3C U57C A86G A126G U132C | 0.34 |
| U2C U72C A111G A118U | 0.02 |
| U3C A11U A95G | 1.55 |
| U3A A51U A78G U127C | 0.3 |
| U2G G21A A23G U49C A116G U122C | 0.55 |
| U3C U39C A91G A94U | 0.83 |
| U3A A36G A63G | 1.4 |
| U3C A22U U37C A67G | 1.39 |
| U3A U9C U19C U122C | 0.36 |
| U3C A47G A54G A111G A117G | 0.03 |
| U3C U9A A33G A90G A114U | 0.05 |
| U3A U103C U120C | 0.14 |
| U3A U57C U72A | 0.25 |
| U3C A47G A140U | 0.65 |
| U2G G15C A30G A95G | 1.49 |
| U2C U100A A111U | 0.05 |
| U2C U39C U57C C85U A118G | 0.6 |
| U3C A47G A90U U130C | 0.44 |
| U3C A11G A118G U120C | 0.23 |
| U3C A63G A66G A78U U103C | 0.2 |
| U3A U72C A117G A118G | 0.17 |
| U3C U9C U12C U49C U70A | 1.13 |
| U2C U43A A94G U103C U131C | 0.07 |
